The source gives no read counts; variants with many changes may rest on few reads.

B1: LINE1-mini (parent)
chain: GGCAGAGCUCAACACAGCGUGGCAAAGUGGCUGUGGCUAGACUGCC

In this data set the parent is B1. The experiment in a line: self-cleavage, relative activity (ratio to wild type); higher = more cleavage; in vitro, sequencing; the parent is a self-cleaving ribozyme.
For A39U A41U G44U, the self-cleavage is 0.09.
The value for C37U G40U C46U was 0.02; that for G40C G44U C46U was 0.02.
The value for A41U U43C C46G was 0.
In the case of C37U C42A U43C, the self-cleavage amounted to 0.06.
For A39U G40C C42U C46U the value was 0.01; for C37G A41G G44C, 0; for C37U G44A C45U, 0.14.
For A39G A41C C46G the value was 0; for A41G U43C G44A, 0.09; for C37G U38G G44U, 0.02.
For A39C A41U C42U the value was 0.24; for C42A U43A C45G, 0.07.
With U38C A39U G40C, the self-cleavage worked out at 0.02.
The value for C37G G44C C46A was 0.04; that for U43C G44A C45G was 0.28.
For A39U A41C C42U C46U the value was 0.5.
For U38G A39U U43C the value was 0.07; for U38A G44C C45U C46A, 0.02; for C37U U38A G40C, 0.12.
Consider C37G A39U C42U C46A, for which the self-cleavage is 0.03.
For U38A C45A C46A the value was 0.23; for A41G C42A C45U, 0.08.
The value for C37U U43C G44A was 0.11; that for C37U U38A A39G was 0.05; that for C37G C42A U43A was 0.06.
The value for A41U C42G C46G was 0.03; that for U38A A39C C42U C45U was 0.04.
In the case of C42G U43G C45U, the self-cleavage is 0.01.
For A39G C42A G44U the value was 0.15; for C37U A41C C46U, 0.02.
U38A G40U C46G: the self-cleavage stood at 0.22.
The value for U38A A39G C42A was 0.03.
For C42U G44A C46G, the self-cleavage amounted to 0.09.
For U43G G44C C45A the value was 0.13; for C37G C42A G44A C45U, 0.01; for U38G A41G C42U, 0.
For A41U C42A G44C the value was 0.03; for A41U U43G C45G, 0.05.
For C37U A41U U43C G44U the value was 0.07.

These data come from the RNAGym collection of RNA variant scans (doi:10.7554/elife.90254).
